Results published in PubChem BioAssay AID445 (National Center for Advancing Translational Sciences (NCATS), 2006).
Hit rate of the full screen: of about 110,000 compounds, about 40 (0.04%) were called active. Inconclusive results, whose numbers are uncertain, are shown with a selection of clear calls. Calls follow the shape of the dose curve; as a rule, active = well fitted curve in the direction sought with a large enough effect in the signal ratio (not every such curve was filed as active); inconclusive = small, poorly fitted or top-dose-only effect, or a change in a side signal; inactive = flat fitted curve, though single readings scatter; the % refers to the signal ratio. Potencies beside an inconclusive call are fits to weak or partial responses and may not hold up.

experiment: IkB Signaling; conditions: ABC-DLBCL IkBa-CBG/CBR dual luciferase ratio (green luciferase fused to IkBa over red control in OCI-Ly3 lymphoma cells), 4 h; IkBa stabilization activation: at 57.1 µM (top of the series), scaled: untreated 0%, proteasome inhibitor 100% unless noted;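 as to IkBa stabilization activation: 0% = basal untreated cells and 100% = reference inhibitor full response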
Summary of the method: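 Curves were fitted separately to fusion (green), unfused (red) and ratio luminescence, then classed by r2, magnitude and activity. Cells: OCI-Ly3, 4 h compound plus doxycycline at 37C; 10 uM MG-132 defined full response.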
Potency is read from the fitted curve at half-maximal effect.

Row | SMILES | IkBa stabilization activation | Potency
1 | CCNS(=O)(=O)c1ccc(C)cc1 | inactive | 
2 | Cc1cccc(C(C)C)c1NC(=O)Cn1c(=O)oc2cc(S(=O)(=O)N3CCCC3)ccc21 | inactive | 
3 | Cn1c(=O)c2c(nc(/C=C\c3cccc(Cl)c3)n2C)n(C)c1=O | inactive | 
4 | O=C(COC(=O)c1cncc(Br)c1)NCc1ccco1 | inconclusive: 5.05% [signal activator] | 
5 | COc1ccc(OC)c(C(=O)CC2(O)C(=O)N(Cc3ccccc3C)c3ccccc32)c1 (stereo unspecified) | inconclusive: 5.22% [signal inhibitor] | 
6 | CCOc1ccccc1CNC(=O)CCc1c(C)nn(-c2ccc(N3CCCC3)nn2)c1C | inconclusive: 0.401% [signal inhibitor] | 
7 | Cc1ccc(S(=O)(=O)C2(C(=O)Nc3ccc(Cl)c(C(F)(F)F)c3)CC2)cc1 | inconclusive: 1.35% [signal inhibitor] | 
8 | Cc1ccc(/C=C(\C#N)c2nc(-c3ccc(-c4ccccc4)cc3)cs2)cc1 |  | inconclusive: 2.51 µM [signal inhibitor, full curve]
9 | COC(=O)c1ccc(Cl)cc1NC(=O)NCCc1c(C)nn(C)c1C | inconclusive: 3.61% [signal inhibitor] | 
10 | O=c1nc2n(c3cc(Cl)c(S(=O)(=O)N4CCOCC4)cc13)CCCCC2 | inactive | 
11 | COc1ccccc1CNC(=O)Cn1c(=O)nc(-c2ccccc2F)c2cc(Cl)ccc21 | inconclusive: -2.04% [signal inhibitor] | 
12 | Cc1ccc(-n2c(=O)c3cccnc3n2CC(=O)Nc2cc(C)cc(C)c2)cc1 | inconclusive: -0.898% [signal inhibitor] | 
13 | Clc1ccccc1-c1nnc2sc(-c3ccc4c(c3)OCO4)nn12 | inconclusive: 2.28% [signal inhibitor] | 
14 | COc1ccc(-n2ccnc2SCC(=O)Nc2ccc3c(c2)OCO3)cc1 | inconclusive: 0.728% [signal inhibitor] | 
15 | CCCC(c1nnnn1Cc1cccs1)N1CCN(c2nc3ccccc3s2)CC1 (stereo unspecified) | inconclusive: 4.01% [signal inhibitor] | 
16 | Cc1cccc(N2CCN(C(=O)CCn3c(=S)[nH]c4cc5c(cc4c3=O)OCO5)CC2C)c1 (stereo unspecified) | inconclusive: 3.28% [signal inhibitor] | 
17 | O=C1c2ccccc2CCC1C(O)c1ccccn1 (stereo unspecified) | inactive | 
18 | Cc1ccc(Cl)cc1N1CCN(C(=O)C2CCC(CNS(=O)(=O)c3cccs3)CC2)CC1 (stereo unspecified) | inconclusive: 9.28% [signal inhibitor] | 
19 | CCOC(=O)c1c(C)[nH]c(C)c1S(=O)(=O)N1CCC(C(=O)Nc2cc(C)ccn2)CC1 | inconclusive: -1.05% [signal inhibitor] | 
20 | COc1cccc(C(=O)N2CCC(C(=O)Nc3cccc(Cl)c3)CC2)c1 | inconclusive: 5.66% [signal inhibitor] | 
21 | COc1cc(C(=O)Nc2ccc(NC(=O)c3ccc(C(C)(C)C)cc3)cc2)cc(OC)c1OC | inconclusive: 1.69% [signal inhibitor] | 
22 | NC(=O)c1ccccc1-c1nc(-c2ccccc2)no1 |  | inconclusive: 20 µM [signal inhibitor, partial curve]
23 | CCC1Oc2ccc(C)cc2N(CC(=O)N(Cc2ccc3c(c2)OCO3)CC2CCCO2)C1=O (stereo unspecified) | inactive | 

Row | SMILES | IkBa stabilization activation | Potency
24 | COc1ccccc1C(=O)Nc1ccc2nc(SCCOc3ccccc3C)sc2c1 | inconclusive: 1.49% [signal inhibitor] | 
25 | N#C/C(=C\c1ccc(O)c(O)c1)C(=O)NCCCCc1ccccc1 | inconclusive: 1.42% [signal inhibitor] | 
26 | COc1ccc2c(c1)c(=O)oc1cc(OCC(=O)N3CCCC(C)C3)ccc12 (stereo unspecified) | inconclusive: -4% [signal inhibitor] | 
27 | CN(C)C(=O)COc1ccc2ccc(=O)oc2c1 | inactive | 
28 | COc1cccc(C(=O)Nc2nc3nc(-c4ccccc4)cc(=O)n3[nH]2)c1 | inconclusive: 4.1% [signal inhibitor] | 
29 | O=C1c2oc3ccccc3c(=O)c2C(c2cccc(O)c2)N1c1nncs1 (stereo unspecified) | inactive | 
30 | O=C(Cn1c(=O)nc(-c2ccccc2)c2ccccc21)NCCc1ccccc1 | inconclusive: -0.0601% [signal inhibitor] | 
31 | CC(C)[C@H](Nc1ncnc2nc[nH]c12)C(=O)O | inactive: -1% [at 11.4 µM, scaled: untreated 0%, proteasome inhibitor 100%] | 
32 | Cc1cc(-c2ccccc2)n2nc(-c3ccccc3)cc2n1 |  | inconclusive: 25.1 µM [signal inhibitor]
33 | Cc1ccc2cc(C(c3nnnn3Cc3ccccc3)N3CCN(c4ccccc4)CC3)c(=O)[nH]c2c1 (stereo unspecified) | inconclusive: 1.67% [signal inhibitor] | 
34 | Cc1c(C(=O)O)oc2c1-c1nn(Cc3ccc(Cl)cc3)cc1CC2 | inconclusive: 2.46% [signal inhibitor] | 
35 | CN(C)CCNC(=O)C(=O)NCC(c1ccc2c(c1)OCO2)N1CCOCC1 (stereo unspecified) | inactive | 
36 | CCOc1ccc(C(c2c(O)cc(C)n(Cc3ccco3)c2=O)N2CCCCC2)cc1 (stereo unspecified) | inconclusive: 3.95% [signal inhibitor] | 
37 | Cc1cc(Cl)ccc1OCC(=O)N1CCC(c2nc3ccccc3s2)CC1 | inconclusive: -2.57% [signal inhibitor] | 
38 | CN1CCN(C(=O)c2ccc(CS(=O)(=O)c3c(Cl)cccc3Cl)o2)CC1 | inactive | 
39 | Brc1ccc2nc(CSc3ncn[nH]3)cn2c1 | inactive | 
40 | Cc1ccn2c(Nc3ccc(C(C)C)cc3)c(-c3cccnc3)nc2c1 | inconclusive: -4.05% [signal inhibitor] | 
41 | O=C(CSc1nc(C2CC2)nc2sc3c(c12)CCCC3)NCc1ccco1 | inactive | 
42 | Cc1cccc2cc(CN(CCCO)C(=O)Nc3cccc(Cl)c3)c(=O)[nH]c12 | inconclusive: 3.4% [signal inhibitor] | 
43 | Cc1cccc(C(=O)Nc2ccc3nc(SCCOc4ccccc4)sc3c2)c1 | inconclusive: -0.0744% [signal inhibitor] | 
44 | CN(C)c1ccc(N=NS(=O)(=O)O)cc1 | inactive | 
45 | CCC(c1nnnn1Cc1cccs1)N1CCN(C2CCCC2)CC1 (stereo unspecified) | inactive | 
46 | CCc1cnc2c(c1SCC(=O)NCc1ccc(F)cc1)c(=O)n(C)c(=O)n2C | inconclusive: 12.8% [signal activator] | 
